According to PMC6265451:
Results are given in words; binding and its absence hold for the method and conditions named. Some binding calls cover weakened binding; strength is not graded here.

Chains of the proteins cited; added tags and fusions are not shown.
UniProt P29468: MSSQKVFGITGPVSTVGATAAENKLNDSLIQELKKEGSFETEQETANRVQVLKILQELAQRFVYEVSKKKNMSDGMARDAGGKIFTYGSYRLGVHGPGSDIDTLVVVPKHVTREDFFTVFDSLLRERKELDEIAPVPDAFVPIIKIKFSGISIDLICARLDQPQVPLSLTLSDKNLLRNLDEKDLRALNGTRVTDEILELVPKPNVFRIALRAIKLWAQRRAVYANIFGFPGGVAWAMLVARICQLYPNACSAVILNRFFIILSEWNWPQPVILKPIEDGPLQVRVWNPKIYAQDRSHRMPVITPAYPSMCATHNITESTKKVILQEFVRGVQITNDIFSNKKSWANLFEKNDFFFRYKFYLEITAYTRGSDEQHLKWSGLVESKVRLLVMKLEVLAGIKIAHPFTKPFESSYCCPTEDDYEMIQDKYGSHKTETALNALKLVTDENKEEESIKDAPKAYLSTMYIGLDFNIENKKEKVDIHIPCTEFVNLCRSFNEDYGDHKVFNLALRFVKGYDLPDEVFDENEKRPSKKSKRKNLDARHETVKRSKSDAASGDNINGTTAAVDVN

T1: Ref2-TAPS (S. cerevisiae) (UniProt P42073)
T1 sequence: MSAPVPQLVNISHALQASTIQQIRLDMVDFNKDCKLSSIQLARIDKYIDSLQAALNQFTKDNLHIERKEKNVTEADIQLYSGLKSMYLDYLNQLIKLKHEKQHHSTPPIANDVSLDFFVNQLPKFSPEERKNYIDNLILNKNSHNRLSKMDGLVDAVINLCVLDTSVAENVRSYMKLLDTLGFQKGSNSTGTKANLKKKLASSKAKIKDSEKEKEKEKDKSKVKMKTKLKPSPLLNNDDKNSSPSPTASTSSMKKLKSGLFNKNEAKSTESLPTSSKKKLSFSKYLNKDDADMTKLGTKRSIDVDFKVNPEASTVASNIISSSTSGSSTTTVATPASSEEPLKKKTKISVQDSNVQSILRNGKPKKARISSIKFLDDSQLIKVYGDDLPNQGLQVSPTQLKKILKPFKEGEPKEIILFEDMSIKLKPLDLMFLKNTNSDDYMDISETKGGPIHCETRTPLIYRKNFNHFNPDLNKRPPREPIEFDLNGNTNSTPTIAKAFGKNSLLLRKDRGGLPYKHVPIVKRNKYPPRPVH

T2: Pta1-TAPS (S. cerevisiae) (UniProt Q01329)
T2 sequence: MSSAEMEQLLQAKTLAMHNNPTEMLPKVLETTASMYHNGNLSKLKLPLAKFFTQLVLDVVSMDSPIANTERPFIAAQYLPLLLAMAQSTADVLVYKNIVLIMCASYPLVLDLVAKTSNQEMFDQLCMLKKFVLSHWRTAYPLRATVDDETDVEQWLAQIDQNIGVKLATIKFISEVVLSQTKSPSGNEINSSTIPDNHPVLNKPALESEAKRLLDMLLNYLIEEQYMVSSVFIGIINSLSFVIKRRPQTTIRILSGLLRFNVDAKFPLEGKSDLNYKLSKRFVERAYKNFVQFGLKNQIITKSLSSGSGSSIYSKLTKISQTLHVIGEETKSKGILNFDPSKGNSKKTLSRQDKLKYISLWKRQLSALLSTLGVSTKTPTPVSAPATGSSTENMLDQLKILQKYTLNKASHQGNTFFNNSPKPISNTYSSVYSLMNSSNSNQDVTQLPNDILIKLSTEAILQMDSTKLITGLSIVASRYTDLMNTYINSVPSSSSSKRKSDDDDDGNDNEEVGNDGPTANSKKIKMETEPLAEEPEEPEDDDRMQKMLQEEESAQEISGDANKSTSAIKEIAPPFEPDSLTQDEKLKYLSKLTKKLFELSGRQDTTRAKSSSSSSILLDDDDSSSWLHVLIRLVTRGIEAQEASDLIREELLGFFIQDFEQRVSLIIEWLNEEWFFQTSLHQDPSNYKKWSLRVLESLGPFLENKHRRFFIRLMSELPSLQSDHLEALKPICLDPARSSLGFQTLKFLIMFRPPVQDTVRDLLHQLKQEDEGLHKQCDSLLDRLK

T3: Syc1-TAPS (S. cerevisiae) (UniProt Q08553)
T3 sequence: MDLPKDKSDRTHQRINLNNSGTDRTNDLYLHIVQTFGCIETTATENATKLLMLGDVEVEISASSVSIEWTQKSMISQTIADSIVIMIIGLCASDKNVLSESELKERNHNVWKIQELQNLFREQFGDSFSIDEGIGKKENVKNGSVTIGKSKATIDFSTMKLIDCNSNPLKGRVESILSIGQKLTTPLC

T4: Mpe1-TAPS (S. cerevisiae) (UniProt P35728)
T4 sequence: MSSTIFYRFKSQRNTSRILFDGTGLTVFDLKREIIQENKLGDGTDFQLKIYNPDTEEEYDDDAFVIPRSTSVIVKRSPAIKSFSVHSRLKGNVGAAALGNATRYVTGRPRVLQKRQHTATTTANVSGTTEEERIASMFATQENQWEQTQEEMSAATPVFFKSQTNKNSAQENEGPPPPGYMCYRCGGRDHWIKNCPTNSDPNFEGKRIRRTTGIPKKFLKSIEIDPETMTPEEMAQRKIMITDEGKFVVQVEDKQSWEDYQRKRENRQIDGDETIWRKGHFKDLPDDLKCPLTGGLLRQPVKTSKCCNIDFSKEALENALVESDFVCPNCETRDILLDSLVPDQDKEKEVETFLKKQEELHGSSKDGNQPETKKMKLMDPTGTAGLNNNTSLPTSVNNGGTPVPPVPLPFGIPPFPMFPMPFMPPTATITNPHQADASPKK

B1: Swd2 (protein, UniProt P36104 1-329)
chain: MTTVSINKPNLLKFKHVKSFQPQEKDCGPVTSLNFDDNGQFLLTSSSNDTMQLYSATNCKFLDTIASKKYGCHSAIFTHAQNECIYSSTMKNFDIKYLNLETNQYLRYFSGHGALVNDLKMNPVNDTFLSSSYDESVRLWDLKISKPQVIIPSLVPNCIAYDPSGLVFALGNPENFEIGLYNLKKIQEGPFLIIKINDATFSQWNKLEFSNNGKYLLVGSSIGKHLIFDAFTGQQLFELIGTRAFPMREFLDSGSACFTPDGEFVLGTDYDGRIAIWNHSDSISNKVLRPQGFIPCVSHETCPRSIAFNPKYSMFVTADETVDFYVYDE
B2: Ref2 (protein, UniProt P42073 1-533)
chain: T1 sequence
B3: Pti1 (protein, UniProt P39927 1-425)
chain: MTDPRRRTGRHFLTPENLSSTLQITNLPPEWNQDIITSVVAGSGPVIDIKAKNDPRTGKLTGVLFDYLTSKDCKRAWEILNRIENFPVKIEQIIPPNYKDHLRETANKNSQKQVLQLNRDSYPFEAGLELPFEMVTEVPIPRRPPPPQAANNTNSVSNNTNIQFPDILSKASKHLPSFQDGSIIAPDKISQNLSKIPPLQLIEIISNLKILSNQENIQKSQLESFLDTNSDITISVTQALLEMGFIDYSVVTKVLKSQVGEAPSLLSSNNTSNSNTPVSVIRNNTPLHVPSNEVSNNPNNMPLNVAMPMPMSTPPFIPLPLQQQPFGFAPPGPFMPPAQGPSMGQPVLANQLGQVQQQNISSTEGPSNANKANDSGTINMAKLQLLPENQQDMIKQVLTLTPAQIQSLPSDQQLMVENFRKEYII
B4: Cft1 (protein, UniProt Q06632 1-1357)
chain: MNVYDDVLDATVVSHSLATHFTTSDYEELLVVRTNILSVYRPTRDGKLYLTDEFKFHGLITDIGLIPQKDSPLSCLLLCTGVAKISILKFNTLTNSIDTLSLHYYEGKFKGKSLVELAKISTLRMDPGSSCALLFNNDIIAFLPFHVNKNDDDEEEEDEDENIDDSELIHSMNQKSQGTNTFNKRKRTKLGDKFTAPSVVLVASELYEGAKNIIDIQFLKNFTKPTIALLYQPKLVWAGNTTISKLPTQYVILTLNIQPAESATKIESTTIAFVKELPWDLHTIVPVSNGAIIVGTNELAFLDNTGVLQSTVLLNSFADKELQKTKIINNSSLEIMFREKNTTSIWIPSSKSKNGGSNNDETLLLMDLKSNIYYIQMEAEGRLLIKFDIFKLPIVNDLLKENSNPKCITRLNATNSNKNMDLFIGFGSGNALVLRLNNLKSTIETREAHNPSSGTNSLMDINDDDDEEMDDLYADEAPENGLTTNDSKGTVETVQPFDIELLSSLRNVGPITSLTVGKVSSIDDVVKGLPNPNKNEYSLVATSGNGSGSHLTVIQTSVQPEIELALKFISITQIWNLKIKGRDRYLITTDSTKSRSDIYESDNNFKLHKGGRLRRDATTVYISMFGEEKRIIQVTTNHLYLYDTHFRRLTTIKFDYEVIHVSVMDPYILVTVSRGDIKIFELEEKNKRKLLKVDLPEILNEMVITSGLILKSNMCNEFLIGLSKSQEEQLLFTFVTADNQIIFFTKDHNDRIFQLNGVDQLNESLYISTYQLGDEIVPDPSIKQVMINKLGHDNKEEYLTILTFGGEIYQYRKLPQRRSRFYRNVTRNDLAITGAPDNAYAKGVSSIERIMHYFPDYNGYSVIFVTGSVPYILIKEDDSTPKIFKFGNIPLVSVTPWSERSVMCVDDIKNARVYTLTTDNMYYGNKLPLKQIKISNVLDDYKTLQKLVYHERAQLFLVSYCKRVPYEALGEDGEKVIGYDENVPHAEGFQSGILLINPKSWKVIDKIDFPKNSVVNEMRSSMIQINSKTKRKREYIIAGVANATTEDTPPTGAFHIYDVIEVVPEPGKPDTNYKLKEIFQEEVSGTVSTVCEVSGRFMISQSQKVLVRDIQEDNSVIPVAFLDIPVFVTDSKSFGNLLIIGDAMQGFQFIGFDAEPYRMISLGRSMSKFQTMSLEFLVNGGDMYFAATDADRNVHVLKYAPDEPNSLSGQRLVHCSSFTLHSTNSCMMLLPRNEEFGSPQVPSFQNVGGQVDGSVFKIVPLSEEKYRRLYVIQQQIIDRELQLGGLNPRMERLANDFYQMGHSMRPMLDFNVIRRFCGLAIDRRKSIAQKAGRHAHFEAWRDIINIEFSMRSLCQGK

What was measured:
[1] = target: T1, Ref2-TAPS (S. cerevisiae); test: anion exchange chromatography; TAPS affinity purification from tagged yeast strain (Ref2-tagged; Pta1-tagged with SYC1 deleted), then Mono Q 5/50 GL in 20 mM HEPES pH 7.9, 150 mM KCl, 3 mM DTT, 0.5 mM Mg(OAc)2; APT eluted at 260 mM KCl and CPF at 400 mM KCl
[2] = target: T2, Pta1-TAPS (S. cerevisiae); test: as above
[3] = target: Pap1-TAPS (S. cerevisiae) (UniProt P29468); test: SEC; TAPS affinity purification from tagged yeast strain, then Superose 6 PC 3.2/30 in 20 mM HEPES pH 7.9, 150 mM KCl, 3 mM DTT, 0.5 mM Mg(OAc)2, 0.5 mM MnCl2; fractions on Coomassie-stained SDS-PAGE
[4] = target: T3, Syc1-TAPS (S. cerevisiae); test: as above
[5] = target: T1, Ref2-TAPS (S. cerevisiae); test: as above
[6] = target: T4, Mpe1-TAPS (S. cerevisiae); test: as above
[7] = target: T2, Pta1-TAPS (S. cerevisiae); test: as above

Binder	binding [1]	binding [2]	binding [3]	binding [4]	binding [5]	binding [6]	binding [7]
B1	binds	binds	binds	binds	binds	binds	binds
B2	–	binds	binds	binds	–	binds	binds
B3	binds	binds	binds	binds	binds	binds	binds
B4	binds	binds	binds	no binding	binds	binds	binds
